Laboratory results: the RNAGym collection of RNA variant scans (doi:10.7554/elife.90254)
The source gives no read counts; variants with many changes may rest on few reads.

B1: LINE1-full (parent)
chain: UACGUAGGUGGUUUUCCCCUGAUAGUGCUAAGGGGGCCUGGAAGUUUGGACUGGGCAGAGCUCAACACAGCGUGGCAAAGUGGCUGUGGCUAGACUGCCUCUCUGGAUUCCUCGUCACUCAGCAGGGCAUCUCUGAGAGAAAUGCC

Variants of: B1
Experiment: self-cleavage, relative activity (ratio to wild type); higher = more cleavage; in vitro, sequencing; the parent is a self-cleaving ribozyme

Variant | self-cleavage
AACGUAGGUGGUUUUCCCCUGAUAGUGCUAAGGGGGCCUGGAAGUUUGGACAGGGCAGAGCUCAACACAGCGUGGCAAAGUGGCUGUGGCUAGACUGCCUCCCUGGAUUCCUCGUCACUCAGCAGGGCAUCUCUGAGAGAAAUGCC | 0.88
AACGUAGGUGGUUUUCCCCUGAUAGUGCUAAGGGGGCCUGGAAGUUUGGACUGGGCAGAGCCCAACACAGCGUGGCAAAGUGGCUGAGGCUAGACUGCCUCUCCGGAUUCCUCGUCACUCAGCAGGGCGUCUCUGAGAGAAACGCC | 0
AACGUAGGUGGUUUUCCCCUGAUAGUGCUAAGGGGGCCUGGAAGUUUGGACUGGGCAGAGCUCAACACAGCGAGGCAAAGUGGCUGUGGCUAGACUGCCUCUCUGGAUUCCUCGUCACUCAGCAGGGCAUCUCUGAGGGAAAUGCC | 1.55
AACGUAGGUGGUUUUCCCCUGAUAGUGCUAAGGGGGCCUGGAAGUUUGGACUGGGCAGAGCUCAACACAGCGUGGCAAAGUGGCUGUGGCUAGACUGCCUCUCAGGAUUCCUCGUCACUCAGCAGGGCGUCUCUGAGAGAAAUGCC | 1.39
AACGUAGGUGGUUUUCCCCUGAUAGUGCUAAGGGGGCCUGGAAGUUUGGACUGGGCAGAGCUCAACACAGCGUGGCAAAGUGGCUGUGGCUAGACUGCCUCUCUGGAUUCCUCGUCACCCAGCAGGGCAUCUCAGAGAGAAAUGCC | 0.95
AACGUAGGUGGUUUUCCCCUGAUAGUGCUAAGGGGGCCUGGAAGUUUGGACUGGGCAGAGCUCAACACAGCGUGGCAAAGUGGCUGUGGCUAGACUGCCUCUCUGGAUUCCUCGUCACUCAGCAGGGCAUCCCUGAGAGAAGUGCC | 1.26
CCCGUAGGUGGUUUUCCCCUGAUAGUGCUAAGGGGGCCUGGAGGUUUGGACUGGGCUGAGCUCAACACAGCGUGGCAAAGUGGCUGUGGCUAGACUGCCUCUCUGGAUUCCUCGUCACUCAGCAGGGCAUCUCCGAGGGAAAUGCC | 0.43
CGCGUAGGUGGUUUUCCCCUGAUUGUGCUAAGGGGGCCUGGAAGUUUGGACUGGGCAGAGCUCAACACAGCGUGGCAAGGUGGCUGUGGCUAGACUGCCUCUCUGGAUUCCUCGUCACUCAGCAGGGCAUCUCUGAGAGAGAUGCC | 0.82
CGCGUAGGUGGUUUUCCCCUGAUAGUGCUAAGGGGGCCUGGAAGUUUGGACUGGGCUGAGCUCAACACAGCGUGGCAAAGAGGCUGUGGCUAGACUGCCUCUCUGGAUUCCUCGUCACUCAGCAGGGCAUCUCUGAGAGAAAUGCC | 0.14
CGCGUAGGUGGUUUUCCCCUGAUAGUGCUAAGGGGGCCUGGAAGUUUGGACUGGGCAGAGCUCAACACAGCGUGGCAAAGUGGCUGUGGCUAGACUGCCUCUCUGGAUUCCUCGUAACUCAGCAGGGCAUCUCUGAGAGAAGUGCC | 0.92
CGCGUAGGUGGGUUUCCCCUGAUAGUGCUAAGGGGGCCUGGAAGUUUGGACUGGGCAGAGCUCAACACAGCGUGGCAAAGUGGCUGUGGCUAGACUGCCUCUCUGGAUUCCUCGUCACUCAGCAGGGCAUCUCUGAGAGAAAUGCC | 0
CGCGUAGGUGGUUUUCCCCUGAUAGAGCUAAGGGGGCCUGGAAGUUUGGACUGGGCAGAGCUCAACACAGCGUGGCAAAGUGGCUGUGGCUAGACUGCCUCUCUGGAUUCCUCGUCACUCAGCAGGGCAUCUCUGAGAGAAAAGCC | 0.67
CGCGUAGGUGGUUUUCCCCUGAUAGUGCUAAGGGGGCCUGGAAGUUUGGACUGGGCAGAGCUCAACACAGCGCGGCAAAGUGGCUGUGGCUAGACUGCCUCUCUGGAUUCCUCGUCACUCAGCAGGGCAUCUCUGAGAGAAAUGCC | 0
CUCGUAGGUGGUUUUCCCCUGAUAGAGCUAAGGGGGCCUGGAAGUUUGGACUGGGCAGAGCUCAACACAGCGUGGCAAAGUGGCUGUGGCUAGACUGCCUCUCUGGAUUCCUCGUCACUCAGCAGGGCAUCUCUGAGAGAAAUGCC | 0.24
CACGUGGGUGGUUUUCCCCUGAUAGUGCUAAGGGGGCCUGGAAGUUUGGACUGGGCAGAGCUCAGCACAGCGUGGCAAAGUGGCUGUGGCUAGACUGCCUCUCUGGAUUCCUCGUCACUCAGCAGGGCAUCUCUGAGAGAAAUGCC | 0.23
CACGUUGGUGGUUUUCCCCUGAUAGUGCUAAGGGGGCCUGGAAGUUUGGACUGGGCAGAGCUCAGCACAGCGUGGCAAAGUGGCUGUGGCUAGACUGCCUCUCUGGAUUCCUCGUCGCUCUGCAGGGCAUCUCUGAGAGAAAUGCC | 0
CACGUAGGUGGUUUUCCCCUGGUAGUGCUAAGGGGGCCUGGAAGUUUGGUCUGGGCAGAGCUCAACACAGCGUGGCAAAGUGGCUGUGGCUAGACUGCCUCUCUGGAUUCCUCGUCACUCAGCAGGGCAUCUCUGAGAGGAGUGCC | 1.11
CACGUAGGUGGUUUUCCCCUGGUAGUGCUAAGGGGGCCUGGAAGUUUGGACUGGGCAGAGCUCAACACAGCGCGGCAAAGUGGCUGUGGCUAGACUGCCUCUCUGGAUUCCUCGUCACUCAGCAGGGCAUCUCUGAGAGAAAUGCC | 0.77
CACGUAGGUGGUUUUCCCCUGGUAGUGCUAAGGGGGCCUGGAAGUUUGGACUGGGCAGAGCUCAACACAGCGUGGCAAAGUGGCUGUGGCUAGACCGCCUCUCUGGAUUCCUCGCCACUCAGCAGGGCAUCUCUGAGAGAAACGCC | 0
CACGUAGGUGGUUUUCCCCUGAUGGUGCUAAGGGGGCCUGGAAGUUUGGACUGGGCAGAGCUCAACGCAGCGUGGCAAAGUGGCUGUGGCUAGACUGCCUCUCUGGAUUCCUCGUCACUCAGCAGGGCAUCUCUGAGAGAAAUGCC | 0.71
